“And” between values parts separate entries of the source, which are not always exact repeats. Equal values may be shown once. About 31,000 (8.9%) of roughly 350,000 compounds were called active. The shares of active, inactive and inconclusive entries below differ from those in the screen. Calls follow the shape of the dose curve; as a rule, active = well fitted inhibition curve with a large enough effect; inconclusive = small, poorly fitted or top-dose-only effect; inactive = no such curve, though single readings can be large or run the other way. Where the call is inconclusive, the potency comes from a doubtful curve fit. The source holds several records for some structures; these can differ, active in one and inactive in another.
target: Histone-lysine N-methyltransferase EHMT2 (Homo sapiens) (UniProt Q96KQ7); assay: qHTS Assay for Inhibitors of Histone Lysine Methyltransferase G9a; settings: G9a H3K9 monomethylation, AlphaScreen, 2 h; activity, negative = inhibition: at 59 µM (top of the series) unless noted; also: nearly all actives have a fitted effect of over 75% in size
How it was run: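 Readings reflect AlphaScreen signal from monomethyl-H3K9 antibody detection. HMT at 20 nM; substrate b-H3K9 500 nM; cofactor SAM 20 uM; 2 h RT reaction; compounds tested as titrations in qHTS with 15 min preincubation.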
% is scaled to controls: 0 for no effect and ±100 for the full control effect; potency is read from the fitted curve at half-maximal effect; tags tell the direction and shape of the fitted curve.

Sequence of UniProt Q96KQ7 (Q96KQ7 whole entry, looked up): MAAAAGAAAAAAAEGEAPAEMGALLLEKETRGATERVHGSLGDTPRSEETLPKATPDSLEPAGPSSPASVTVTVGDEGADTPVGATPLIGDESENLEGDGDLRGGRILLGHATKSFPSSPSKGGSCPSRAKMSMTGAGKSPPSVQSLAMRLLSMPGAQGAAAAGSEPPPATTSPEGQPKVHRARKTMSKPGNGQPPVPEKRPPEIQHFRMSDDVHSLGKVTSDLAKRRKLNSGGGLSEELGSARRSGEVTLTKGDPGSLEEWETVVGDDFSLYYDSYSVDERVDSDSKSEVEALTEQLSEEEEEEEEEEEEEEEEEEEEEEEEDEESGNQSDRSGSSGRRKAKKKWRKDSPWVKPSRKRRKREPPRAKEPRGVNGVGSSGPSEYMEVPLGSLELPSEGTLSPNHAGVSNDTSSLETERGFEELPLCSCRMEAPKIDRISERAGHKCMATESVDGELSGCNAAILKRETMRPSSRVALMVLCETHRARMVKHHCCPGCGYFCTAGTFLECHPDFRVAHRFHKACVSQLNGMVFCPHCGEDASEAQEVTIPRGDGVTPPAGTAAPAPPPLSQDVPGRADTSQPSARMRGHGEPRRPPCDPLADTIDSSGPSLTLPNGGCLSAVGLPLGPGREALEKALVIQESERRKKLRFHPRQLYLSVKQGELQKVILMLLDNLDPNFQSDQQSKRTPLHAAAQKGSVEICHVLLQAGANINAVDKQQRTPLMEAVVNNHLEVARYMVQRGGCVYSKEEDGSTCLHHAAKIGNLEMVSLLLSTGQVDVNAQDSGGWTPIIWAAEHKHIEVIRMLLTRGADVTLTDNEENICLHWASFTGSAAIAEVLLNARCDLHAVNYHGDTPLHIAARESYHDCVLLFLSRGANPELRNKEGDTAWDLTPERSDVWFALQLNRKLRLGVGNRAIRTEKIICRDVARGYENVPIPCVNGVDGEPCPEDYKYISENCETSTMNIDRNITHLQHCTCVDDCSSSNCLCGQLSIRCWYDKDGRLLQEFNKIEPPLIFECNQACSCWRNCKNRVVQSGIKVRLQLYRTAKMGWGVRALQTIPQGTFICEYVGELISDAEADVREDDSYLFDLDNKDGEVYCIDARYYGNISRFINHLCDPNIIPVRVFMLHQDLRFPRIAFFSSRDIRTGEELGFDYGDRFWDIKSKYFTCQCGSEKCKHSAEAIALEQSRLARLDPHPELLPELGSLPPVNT

Structure (SMILES)	Potency	activity, negative = inhibition
O=C(O)CCC(=O)N1CCc2cc(S(=O)(=O)N3CCC(Cc4ccccc4)CC3)ccc21	inconclusive: 25.1 µM [inhibitor, single point]	
O=C(CSC1=NS(=O)(=O)c2ccccc2N1)c1ccccc1	inconclusive: 50.1 µM [inhibitor, partial curve]	
COc1ccc(-n2nc(C(=O)NCC(=O)N3CCN(c4ccccc4)CC3)c3ccccc3c2=O)cc1OC	active: 44.7 µM	
CNC(=O)CCCCCNS(=O)(=O)c1ccc(C)cc1		inactive: -0.902%
O=C(Nc1ccncc1)c1ccccc1F		inactive: -3.48% [at 102 µM]
Cc1oc2ncnc(N3CCOCC3)c2c1C(=O)NCc1ccccc1		inactive: -3.5%
CCn1c(SCC(=O)N2CCC(C)CC2)nc2c1c(=O)n(C)c(=O)n2C	inconclusive: 89.1 µM [inhibitor, single point]	
O=C(NC(=S)Nc1ccc(N2CCN(C(=O)c3ccccc3)CC2)cc1)c1cccs1	inconclusive: 28.2 µM [inhibitor, single point]	
COc1ccc(-c2c(NC(C)=O)n(C)c3ccccc3c2=O)cc1	inconclusive: 89.1 µM [inhibitor, single point]	
O=C1c2c(O)cccc2Cc2cccc(O)c21	active: 12.6 µM and active: 2.51 µM	inactive: -94.8% [at 2.33 µM]
Cc1ccc(NC(=O)Cn2cc(C(=O)c3cccs3)c3ccccc32)cc1C		inactive: -20.1%
Cc1ccc(C(=O)c2cn(Cc3cccc(F)c3)c3nc(C)ccc3c2=O)cc1		inactive: -0.178%
COc1ccc2[nH]c(=O)c3c(c2c1)OC(C)(C)C=C3	inconclusive: 39.8 µM [inhibitor, single point]	
CN(C)c1ccc(C(=O)Nc2nc3c(s2)CCCC3)cc1	active: 35.5 µM	
CCOc1ccc(NC(=O)CN2CCN(CC(=O)Nc3ccc(OC)cc3OC)CC2)cc1	inconclusive: 89.1 µM [inhibitor, single point]	
Cc1ccc(NC(=O)c2cc(-c3ccco3)on2)cc1C	active: 50.1 µM	
NC(=O)CC[C@@H]1NC(=O)[C@H](CO)NC(=O)c2cc([N+](=O)[O-])cc(I)c2NCCCC[C@@H](C(N)=O)NC(=O)[C@H](Cc2ccc(O)cc2)NC1=O	inconclusive: 50.1 µM [inhibitor, partial curve, poor fit]	
CCOc1ccc(/C=C2\SC(N3CCc4ccccc4C3)=NC2=O)cc1	inconclusive: 1 µM [inhibitor, full curve]	
O=C1COc2ccc(C(=O)COC(=O)Cn3cnc4ccccc43)cc2N1	inconclusive: 39.8 µM [inhibitor, single point]	
Cc1cccc(NS(=O)(=O)c2ccc(Cl)c(C(=O)Nc3ccccc3C)c2)c1		inactive: -5.58%
O=C1c2ccccc2-c2nc3ccccc3n21	inconclusive: 2.82 µM [inhibitor, partial curve]	
Cc1ccc2nc(/C(C#N)=C\c3cc(O)ccc3[N+](=O)[O-])[nH]c2c1	inconclusive: 89.1 µM [inhibitor, partial curve, poor fit]	
COc1cc(CN2CCc3c([nH]c4ccccc34)C2)cc(OC)c1	active: 31.6 µM	
Cc1oc(-c2ccccc2)nc1CNS(=O)(=O)c1ccc(Cl)cc1		inactive: 13.3%

Structure (SMILES)	Potency	activity, negative = inhibition
O=C(O)c1ccccc1C1=Nc2ccc(O)cc2Oc2cc(O)ccc21	inconclusive: 79.4 µM [inhibitor, single point]	
COc1ccc(OC)c(-n2cnc3cc(C(=O)NC4CCCC4)ccc32)c1	inconclusive: 8.91 µM [inhibitor, partial curve, poor fit]	
CC(=O)C1=C(C)OC(N)=C(C#N)C1c1cc2cccc(C)c2nc1Cl (stereo unspecified)	inconclusive: 35.5 µM [inhibitor, single point]	
N#Cc1c(-c2ccco2)cc(C2CC2)nc1N	active: 14.1 µM	
O=[N+]([O-])c1cc(/C=N/O)ccc1N1CCCC1	inconclusive: 44.7 µM [inhibitor, partial curve]	
O=C(NCc1ccccc1F)C1CCCN1C(=O)Nc1cccc(F)c1 (stereo unspecified)		inactive: 15% [at 102 µM]
Cc1cc(C(F)(F)F)nc(SCc2ccc(C(=O)O)o2)n1	active: 39.8 µM	
Cc1cccc(Nc2nc(N)c([N+](=O)[O-])c(N3CCN(C)CC3)n2)c1	inconclusive: 44.7 µM [inhibitor, partial curve]	
COC(=O)COc1ccc(S(=O)(=O)NCCC2=CCCCC2)cc1	inconclusive: 22.4 µM [inhibitor, single point]	
O=C(COc1ccccc1F)Nc1ccc2c(c1)OCCO2		inactive: 24.7% [at 102 µM]
COC(=O)C1=C(C)NC(=O)/C1=C\c1cc(C)n(-c2cccc(C)c2)c1C		inactive: -1.6% [at 12.7 µM]
CC(=O)Oc1ccc(N2C(=O)C3C4C=CC(CO)(O4)C3C2=O)cc1 (stereo unspecified)	active: 1 µM	
CCOc1ccc(-c2cc(C(=O)NCc3ccc(OC)cc3)c3c(-c4ccc(F)cc4)[nH]nc3n2)cc1		inactive: -6.07%
CCCOc1ccc(NC(=O)CC2C(=O)N(c3cccc(C)c3)C(=O)N2CCc2ccncc2)cc1 (stereo unspecified)	inconclusive: 7.08 µM [inhibitor, single point]	
OC(COC(c1ccccc1)c1ccccc1)CN1CCN(c2cccc(Cl)c2)CC1 (stereo unspecified)		inactive: -23% [at 102 µM]
CC(C)(C)c1ccc(C(=O)N/N=C/c2ccccn2)cc1		inactive: 33.8% [at 102 µM]
COc1ccc(CCNC(=O)CSc2nnc(CNc3ccc(Cl)cc3)o2)cc1OC	inconclusive: 3.55 µM [inhibitor, full curve, poor fit]	
O=C(Oc1ccccc1)c1ccc2nsnc2c1	inconclusive: 25.1 µM [inhibitor, single point]	
CCN(C(=O)COC(=O)COc1ccc(Cl)c(C)c1)C1CCS(=O)(=O)C1 (stereo unspecified)	inconclusive: 4.47 µM [inhibitor, single point]	
Cc1ccc(-n2nc3ccc(NC(=O)/C=C/c4ccco4)cc3n2)cc1	inconclusive: 22.4 µM [inhibitor, single point]	
CCOc1ccc(CN(C)C(C)C(=O)Nc2ccc([N+](=O)[O-])cc2Cl)cc1OC (stereo unspecified)	inconclusive: 35.5 µM [inhibitor, single point]	
COCCN(C(=O)Cc1cccs1)C(C(=O)NCc1ccc(OC)cc1)c1ccc(C)cc1 (stereo unspecified)	inconclusive: 20 µM [inhibitor, single point]	
COc1ccc(C(=O)NNC(=S)NC(=O)c2ccccc2)cc1	active: 22.4 µM	
Cc1ccc(N2CC(O)(c3cccs3)[N+]3=C2CCCC3)cc1 (stereo unspecified)		inactive: 7.45% [at 12.7 µM]

Structure (SMILES)	Potency	activity, negative = inhibition
CC(=O)c1cccc(NC(=O)COC(=O)Cc2ccc(Cl)cc2)c1	inconclusive: 89.1 µM [inhibitor, single point]	
COC(=O)c1cc2occc2n1CC(=O)Nc1ccc(C)cc1C	inconclusive: 8.91 µM [inhibitor, partial curve]	
C[C@@H](NC(=O)[C@@H]1Cc2ccccc2CN1)C(=O)Nc1ccc2c(c1)OCO2	inconclusive: 89.1 µM [inhibitor, single point]	
c1ncc(-c2ccoc2)c(NC2CC2)n1		inactive: 0.0707% [at 0.501 µM]
O=C(COC(=O)c1ccc[n+]([O-])c1)Nc1ccc(Cl)cc1[N+](=O)[O-]		inactive: 22% [at 2.33 µM]
c1csc(-c2nc3ccccn3c2Nc2ccc3c(c2)OCCO3)c1	inconclusive: 35.5 µM [inhibitor, single point]	
CCN(CC)CCCNC(=S)N(Cc1cccs1)Cc1cc2cc3c(cc2[nH]c1=O)OCCO3		inactive: -40.9% [at 102 µM]
COc1ccc(CCNC(=O)c2n[nH]c(=O)c3ccccc23)cc1	inconclusive: 44.7 µM [inhibitor, partial curve, poor fit]	
Cc1cc(C)n(-c2nc3ccccc3c(=O)n2OCC(N)=O)n1		inactive: 4.69% [at 12.7 µM]
COc1ccc(S(=O)(=O)NCCS(=O)(=O)N2CCN(c3ccccc3F)CC2)cc1		inactive: 3.71%
O=C(Cc1ccsc1-c1ccccc1)NO		inconclusive: -54.2% [inhibitor]
Cc1cccc(Nc2nc(N)nc(CCl)n2)c1	inconclusive: 70.8 µM [inhibitor, partial curve]	
Oc1[nH]c2ccccc2c1C=Nc1ccccc1	inconclusive: 39.8 µM [inhibitor, partial curve, poor fit]	
COc1ccc(C2(O)C(=O)Nc3ccc(C)cc32)cc1OC (stereo unspecified)		inactive: 23% [at 2.33 µM]
COCCNC(=O)C(c1ccc(F)cc1)N(C(=O)CCC(=O)Nc1nccs1)c1cccc(C)c1 (stereo unspecified)	inconclusive: 12.6 µM [inhibitor, partial curve, poor fit]	
c1ccc2[nH]c(NCCCN3CCOCC3)nc2c1		inactive: -25.5% [at 102 µM]
COc1ccc([N+](=O)[O-])cc1NC(=O)c1ccccc1SC	inconclusive: 70.8 µM [inhibitor, partial curve, poor fit]	
Oc1c(C(c2ccc(Cl)cc2)N2CCCC2)sc2nc(-c3ccco3)nn12 (stereo unspecified)	inconclusive: 28.2 µM [inhibitor, partial curve, poor fit]	
CCOc1cc(-c2ccc(OC(=O)c3ccc(Cl)cc3)c(OC)c2)cc(=O)c2c(C)oc(C)c12	inconclusive: 20 µM [inhibitor, partial curve, poor fit]	
O=C(CSc1nnc(NC(=O)c2ccccc2)s1)NCC1CCCO1 (stereo unspecified)	inconclusive: 89.1 µM [inhibitor, single point]	
CCc1c(C)nc2[nH]nc(NC(=O)C(F)(F)F)n2c1=O	active: 15.8 µM	
O=C(CC(C(=O)N1CCc2ccccc21)n1ccnc1)NCc1cccnc1 (stereo unspecified)	inconclusive: 25.1 µM [inhibitor, partial curve, poor fit]	

— PubChem BioAssay AID504332 (National Center for Advancing Translational Sciences (NCATS), 2011)
